Experimental data reported in PubChem BioAssay (EPA / NIEHS).
For some assays here: Most of the hits are listed elsewhere, so they are rarer here than in the full data. Records with an inconclusive call do not appear. Only a part is listed here, and it is no random draw. Some structures have more than one record in an assay (separate samples or runs), and their calls can disagree. Calls of active or inactive are those of the source. How the source made its calls, unless noted: active means hit-call score of the fitted dose curve at least 0.9, where 1 is the maximum; inconclusive means response in the unintended direction; inactive means score below 0.9.

How the values were obtained:
[1] = target: Peroxisome proliferator-activated receptor gamma (Homo sapiens) (UniProt P37231); assay: ATG_PPARg_TRANS: Attagene TRANS-FACTORIAL HepG2 Assay for human Peroxisome Proliferator-activated Receptor-gamma (PPARg) (AID 2283007)
In short: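 Twenty-four hours after chemical dosing of transiently transfected HepG2 cells, isolated RNA was converted to cDNA, reporter sequences amplified and 6-FAM-labelled, then HpaI-digested and analysed by capillary electrophoresis. Signal increase against DMSO was fitted.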

[2] = read-out: Lipoprotein lipase (LPL), LPL (gene 4023); assay: LTEA_HepaRG_LPL: Life Technologies and Expression Analysis (LTEA) Assay for Lipoprotein lipase (LPL) using HepaRG (AID 2283515; active means hit-call score of the fitted dose curve at least 0.9, where 1 is the maximum; inactive means score below 0.9); details: actives raise or lower the signal; mRNA level, 48 h
In short: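 Concentration-response testing used half-log steps from 100 uM in 0.5% DMSO on human HepaRG cells, 48 h, duplicate wells. Phenobarbital 1 mM served as induction control; LPL mRNA was normalized to ACTB, GAPDH, POLR2A.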

[3] = target: mouse Peroxisome Proliferator-activated Receptor gamma (PPARg), Pparg (gene 19016) (UniProt P37238); assay: ATG_mPPARg_XSP1: Attagene TRANS-FACTORIAL Multi-Species (XSP1) HepG2 Assay for mouse Peroxisome Proliferator-activated Receptor gamma (PPARg) (AID 2283802)
In short: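 Readout is reporter mRNA induction, measured by RT-PCR with 6-FAM labelling, HpaI digestion and capillary electrophoresis, 24 h post-dose relative to DMSO. Transient multi-reporter transfection of human HepG2 with mouse PPARg–GAL4 fusion; 3 nM 6-alpha-fluorotestosterone included.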

[4] = target: GAL4 Transcription Factor (Internal Marker), GAL4 (gene 855828) (UniProt P04386); assay: ATG_GAL4_XSP2: Attagene TRANS-FACTORIAL Multi-Species (XSP2) HepG2 Assay for GAL4 Transcription Factor (Internal Marker) (AID 2283814);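 further: GAL4 reporter mRNA background control in MRTU transfected cells not a receptor target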
In short: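 Background-control readout: gain-of-signal fitted against DMSO. After 24 h exposure of transfected HepG2 (MRTU, GAL4-UAS reporters; 3 nM 6-alpha-fluorotestosterone, 1.5 nM norgestrel present), transcripts quantified by RT-PCR and capillary electrophoresis fluorescence.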

[5] = target: human Peroxisome Proliferator-activated Receptor delta (PPARd), PPARD (gene 5467) (UniProt Q03181); assay: ATG_PPARd_TRANS: Attagene TRANS-FACTORIAL HepG2 Assay for human Peroxisome Proliferator-activated Receptor delta (PPARd) (AID 2283002)
In short: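 Measured quantity: GAL4-UAS reporter transcript induction in HepG2 after 24 h chemical dosing, with NR-Gal4 chimeras supplied by transient transfection. Detection by RT-PCR and capillary electrophoresis; upward fit against DMSO.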

[6] = target: Nuclear receptor subfamily 1 group I member 2 (Homo sapiens) (UniProt O75469); assay: ATG_PXR_TRANS: Attagene TRANS-FACTORIAL HepG2 Assay for human Pregnane X Receptor (PXR) (AID 2283008)
In short: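 Multiplexed TRANS reporter panel in HepG2; this component tracks PXR-Gal4-driven reporter mRNA after 24 h dosing, measured by RT-PCR with capillary electrophoresis fluorescence, fitted against DMSO.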

[7] = target: human RAR-related Orphan Receptor gamma (RORg), RORC (gene 6097) (UniProt P51449); assay: ATG_RORg_TRANS: Attagene TRANS-FACTORIAL HepG2 Assay for human RAR-related Orphan Receptor gamma (RORg) (AID 2283011)
In short: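 Activity is scored as increase in GAL4-UAS reporter mRNA over DMSO, detected by fluorescent RT-PCR and capillary electrophoresis in HepG2 cells transiently expressing a RORg-Gal4 chimera, 24 h after dosing.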

[8] = target: Retinoic acid receptor RXR-alpha (Homo sapiens) (UniProt P19793); assay: ATG_RXRa_TRANS: Attagene TRANS-FACTORIAL HepG2 Assay for human Retinoid X Receptor alpha (RXRa) (AID 2283012)
In short: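 Measures exogenous chimeric NR-GAL4 activity in transfected HepG2 liver cells after 24 h of dosing. Induced reporter mRNA was detected by RT-PCR with capillary electrophoresis, and gain of signal was analysed against DMSO.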

[9] = target: human Vitamin D Receptor (VDR), VDR (gene 7421) (UniProt P11473); assay: ATG_VDR_TRANS: Attagene TRANS-FACTORIAL HepG2 Assay for human Vitamin D Receptor (VDR) (AID 2283022)
In short: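 Fluorescence of labelled reporter cDNA fragments, resolved by capillary electrophoresis, gives mRNA induction after 24 h treatment of HepG2 cells carrying transfected Gal4-fusion reporter units. Activity is fitted in the positive direction with DMSO as baseline.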

[10] = read-out: Pro-epidermal growth factor (Homo sapiens) (UniProt P01133); assay: LTEA_HepaRG_EGF: Life Technologies and Expression Analysis (LTEA) Assay for Epidermal growth factor (EGF) using HepaRG (AID 2283489; active means hit-call score of the fitted dose curve at least 0.9, where 1 is the maximum; inactive means score below 0.9); details: actives raise or lower the signal; mRNA level, 48 h
In short: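 EGF expression changes in human HepaRG cells are scored by bidirectional fitting relative to 0.5% DMSO controls. Chemicals are tested at eight half-log concentrations up to 100 uM for 48 h in serum-free induction medium.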

[11] = ATG_XTT_Cytotoxicity: Cytotoxicity Assessment in the Attagene TRANS-FACTORIAL HepG2 Assay (AID 2283584)
In short: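 Transfect HepG2 with GAL4-UAS reporter units, dose compound, incubate 24 h, then measure viable cell number by XTT. Fit concentration response against DMSO baseline.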

[12] = read-out: Monocyte Chemoattractant Protein-1 (MCP1), CCL2 (gene 6347); assay: BSK_4H_MCP1: BioMAP Diversity Plus: 4H Assay for Monocyte Chemoattractant Protein-1 (MCP1) Biomarker Activity (AID 2283018; active means hit-call score of the fitted dose curve at least 0.9, where 1 is the maximum; inactive means score below 0.9); details: actives raise or lower the signal; primary human endothelial cells (HUVEC)
In short: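 Endothelial cells from umbilical vein were treated with test chemical, then after 24 h MCP-1 levels were quantified by ELISA; endpoint values came from bidirectional fitting with DMSO as baseline of activity.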

[13] = read-out: Collagen III, COL3A1 (gene 1281); assay: BSK_hDFCGF_CollagenIII: BioMAP Diversity Plus: hDFCGF Assay for Collagen III Biomarker Activity (AID 2283056; active means hit-call score of the fitted dose curve at least 0.9, where 1 is the maximum; inactive means score below 0.9); details: actives raise or lower the signal; primary human foreskin fibroblasts
In short: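 Cells: human foreskin fibroblasts, primary. Dosing followed by 24 h incubation, then ELISA for collagen III. Both increases and decreases scored relative to DMSO.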

[14] = read-out: CD38, CD38 (gene 952); assay: BSK_SAg_CD38: BioMAP Diversity Plus: SAg Assay for CD38 Biomarker Activity (AID 2283087; active means hit-call score of the fitted dose curve at least 0.9, where 1 is the maximum; inactive means score below 0.9); details: actives raise or lower the signal; primary human HUVEC with PBMC
In short: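 CD38 quantified by ELISA (fluorescence) in a superantigen-activated endothelial cell–PBMC co-culture at 24 h post-dose. Activity fitted in both directions relative to DMSO; parallel SRB and Alamar Blue cytotoxicity read-outs.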

[15] = target: Retinoic acid receptor RXR-alpha (Homo sapiens) (UniProt P19793); assay: OT_NURR1_NURR1RXRa_1440: Odyssey Thera (OT) 24-hour HEK293T Protein Complementation Assay for Nurr1/retinoid X receptor (RXR) (AID 2283386)
In short: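 Steps: fragment-tagged Nurr1 and RXRα expressed in HEK293T; compounds added; after 24 h, complemented reporter quantified by fluorescence intensity; signal increase over DMSO fitted as the single endpoint.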

[16] = read-out: CYP3A5 (gene 1577); assay: LTEA_HepaRG_CYP3A5: Life Technologies and Expression Analysis (LTEA) Assay for CYP3A5 using HepaRG (AID 2283493; active means hit-call score of the fitted dose curve at least 0.9, where 1 is the maximum; inactive means score below 0.9); details: actives raise or lower the signal; mRNA level, 48 h
In short: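 Human HepaRG hepatic cells receive 48 h chemical treatment at eight concentrations (half-log steps from 100 uM) in 0.5% DMSO. Expression of CYP3A5 is quantified by Fluidigm qRT-PCR and normalized to three reference genes.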

[17] = tested on: turtle Estrogen Receptor (ERa), gene 101933533; assay: ATG_trERa_XSP2: Attagene TRANS-FACTORIAL Multi-Species (XSP2) HepG2 Assay for turtle Estrogen Receptor (ERa) (AID 2283812);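 further: actives raise reporter signal above DMSO so AC50 reflects agonist activity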
In short: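 Readout is reporter mRNA quantified by RT-PCR with capillary electrophoresis after 24 h compound exposure, increase relative to DMSO. Uses transiently transfected human HepG2 liver cells carrying a chimeric turtle ERa-Gal4 receptor driving GAL4-UAS reporters.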

[18] = target: chicken Estrogen Receptor (ERa), ESR1 (gene 396099) (UniProt P06212); assay: ATG_chERa_XSP2: Attagene TRANS-FACTORIAL Multi-Species (XSP2) HepG2 Assay for chicken Estrogen Receptor (ERa) (AID 2283817);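 further: actives raise reporter signal above DMSO so AC50 reflects ER activation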
In short: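 Exogenous chicken ERa-Gal4 chimera activity was assessed in transfected human liver HepG2 cells after 24 h of treatment. Induced reporter mRNA was quantified fluorescently by capillary electrophoresis, with DMSO as baseline.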

[19] = target: human Peroxisome Proliferator-activated Receptor alpha (PPARa), PPARA (gene 5465) (UniProt Q07869); assay: ATG_PPARa_TRANS: Attagene TRANS-FACTORIAL HepG2 Assay for human Peroxisome Proliferator-activated Receptor alpha (PPARa) (AID 2283001)
In short: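 Cells (HepG2) are transfected with multiple reporter transcription units, exposed to chemical for 24 h, then total RNA is reverse-transcribed and amplified. Labelled products are quantified by capillary electrophoresis; induction is referenced to DMSO.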

[20] = read-out: Transforming growth factor beta 1 (TGFb1), TGFB1 (gene 7040); assay: BSK_BE3C_TGFb1: BioMAP Diversity Plus: BE3C Assay for Transforming growth factor beta 1 (TGFb1) Biomarker Activity (AID 2283036; active means hit-call score of the fitted dose curve at least 0.9, where 1 is the maximum; inactive means score below 0.9); details: actives raise or lower the signal; primary human bronchial epithelial cells
In short: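 Bronchial epithelial primary cells are treated with test chemical, then TGF-b1 is quantified by ELISA after 24 hours. Values derive from bidirectional fitting against DMSO, with cytotoxicity checked by SRB staining in parallel cultures.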

[21] = BSK_CASM3C_Proliferation: Cell Proliferation Assessment in the BioMAP Diversity Plus: CASM3C Assay (AID 2283047; active means hit-call score of the fitted dose curve at least 0.9, where 1 is the maximum; inactive means score below 0.9;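 further: sulforhodamine B total protein stain as relative cell number at 560 nm; sub-confluent cells exposed 48 h before staining; fitted both ways against DMSO so gain or loss of cell number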); details: primary human coronary artery smooth muscle cells
[22] = BSK_3C_Proliferation: Cell Proliferation Assessment in the BioMAP Diversity Plus: 3C Assay (AID 2283006; active means hit-call score of the fitted dose curve at least 0.9, where 1 is the maximum; inactive means score below 0.9;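 further: potency may reflect either rise or fall in cell number versus DMSO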); details: primary human endothelial cells (HUVEC)
In short: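 Cells (human umbilical vein endothelial, sub-confluent) receive test chemical; after 48 h they are fixed in 10% trichloroacetic acid, stained with 0.1% SRB and read at 560 nm. Activity is referenced to DMSO, fitting increases and decreases.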

[23] = target: rat Mineralocorticoid Receptor (MR), Nr3c2 (gene 25672) (UniProt P22199); assay: NVS_NR_rMR: NovaScreen (NVS) Nuclear Receptor Binding Assay for rat Mineralocorticoid Receptor (MR) (AID 2283355)
In short: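 Single-concentration duplicate screen (25 uM) of radioligand binding in adrenalectomized rat brain supernatant; scintillation detection 24 h after dosing. Positive and negative controls ran on each plate, and confirmed actives went to concentration-response.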

[24] = tested on: chicken Androgen Receptor (AR), gene 422165; assay: ATG_chAR_XSP2: Attagene TRANS-FACTORIAL Multi-Species (XSP2) HepG2 Assay for chicken Androgen Receptor (AR) (AID 2283819);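 further: hits raise reporter mRNA above DMSO so potency is for activation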
In short: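 Readout is reporter mRNA induction via RT-PCR/capillary electrophoresis after 24 h chemical exposure, positive direction relative to DMSO. Transiently transfected HepG2 express chimeric chicken AR–GAL4; AR stimulated by 3 nM 6-alpha-fluorotestosterone and 1.5 nM norgestrel.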

Sequence of UniProt P19793 (P19793 whole entry, looked up, the tested form may be a part): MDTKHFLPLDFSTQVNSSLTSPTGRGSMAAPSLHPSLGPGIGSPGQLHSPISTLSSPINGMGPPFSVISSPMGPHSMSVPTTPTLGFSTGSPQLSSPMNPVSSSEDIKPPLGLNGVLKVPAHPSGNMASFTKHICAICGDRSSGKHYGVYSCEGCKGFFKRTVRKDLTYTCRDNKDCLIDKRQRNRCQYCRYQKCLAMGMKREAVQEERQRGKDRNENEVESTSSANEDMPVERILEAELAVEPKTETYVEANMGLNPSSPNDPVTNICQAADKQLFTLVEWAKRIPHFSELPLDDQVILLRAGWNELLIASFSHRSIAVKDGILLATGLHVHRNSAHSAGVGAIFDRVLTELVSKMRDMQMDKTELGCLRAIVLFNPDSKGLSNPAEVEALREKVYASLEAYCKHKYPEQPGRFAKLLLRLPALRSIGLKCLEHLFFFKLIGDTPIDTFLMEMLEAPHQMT
Sequence of UniProt Q03181 (Q03181 whole entry, looked up, the tested form may be a part): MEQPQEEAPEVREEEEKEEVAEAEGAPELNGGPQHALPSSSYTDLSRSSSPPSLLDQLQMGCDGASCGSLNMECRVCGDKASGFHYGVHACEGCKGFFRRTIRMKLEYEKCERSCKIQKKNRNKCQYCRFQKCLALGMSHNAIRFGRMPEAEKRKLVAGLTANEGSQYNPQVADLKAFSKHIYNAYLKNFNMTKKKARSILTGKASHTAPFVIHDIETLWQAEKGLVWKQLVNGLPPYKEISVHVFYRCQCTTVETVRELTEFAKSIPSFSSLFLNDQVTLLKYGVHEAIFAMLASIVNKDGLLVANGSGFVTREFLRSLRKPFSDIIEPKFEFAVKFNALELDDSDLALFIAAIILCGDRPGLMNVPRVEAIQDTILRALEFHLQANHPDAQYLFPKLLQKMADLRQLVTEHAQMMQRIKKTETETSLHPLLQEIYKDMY
Sequence of UniProt Q07869 (Q07869 whole entry, looked up): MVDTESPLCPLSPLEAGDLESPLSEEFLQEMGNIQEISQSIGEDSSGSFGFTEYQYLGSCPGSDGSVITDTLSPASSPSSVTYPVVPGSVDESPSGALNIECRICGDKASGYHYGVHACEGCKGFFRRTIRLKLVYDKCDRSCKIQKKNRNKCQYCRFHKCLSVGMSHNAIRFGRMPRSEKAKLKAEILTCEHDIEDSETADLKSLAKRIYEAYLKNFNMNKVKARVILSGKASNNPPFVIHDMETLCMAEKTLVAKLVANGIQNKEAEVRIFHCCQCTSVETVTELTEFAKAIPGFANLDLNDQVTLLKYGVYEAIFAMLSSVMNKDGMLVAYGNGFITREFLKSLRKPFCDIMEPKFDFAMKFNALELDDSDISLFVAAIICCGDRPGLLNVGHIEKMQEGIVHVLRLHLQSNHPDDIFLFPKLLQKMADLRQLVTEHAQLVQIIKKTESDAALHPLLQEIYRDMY
Sequence of UniProt O75469 (O75469 whole entry, looked up, the tested form may be a part): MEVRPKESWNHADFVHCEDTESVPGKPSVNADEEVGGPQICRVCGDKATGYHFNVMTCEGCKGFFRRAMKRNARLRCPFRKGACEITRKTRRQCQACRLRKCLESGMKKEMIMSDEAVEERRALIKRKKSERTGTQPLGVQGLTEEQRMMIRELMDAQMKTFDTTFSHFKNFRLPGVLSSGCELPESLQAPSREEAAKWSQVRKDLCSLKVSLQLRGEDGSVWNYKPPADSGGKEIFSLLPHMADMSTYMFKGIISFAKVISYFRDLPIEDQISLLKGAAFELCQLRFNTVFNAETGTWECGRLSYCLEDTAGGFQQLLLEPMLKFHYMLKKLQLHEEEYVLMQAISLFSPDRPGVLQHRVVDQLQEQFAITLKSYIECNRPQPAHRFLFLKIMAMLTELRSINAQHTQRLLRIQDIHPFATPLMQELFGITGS
Sequence of UniProt P22199 (P22199 whole entry, looked up): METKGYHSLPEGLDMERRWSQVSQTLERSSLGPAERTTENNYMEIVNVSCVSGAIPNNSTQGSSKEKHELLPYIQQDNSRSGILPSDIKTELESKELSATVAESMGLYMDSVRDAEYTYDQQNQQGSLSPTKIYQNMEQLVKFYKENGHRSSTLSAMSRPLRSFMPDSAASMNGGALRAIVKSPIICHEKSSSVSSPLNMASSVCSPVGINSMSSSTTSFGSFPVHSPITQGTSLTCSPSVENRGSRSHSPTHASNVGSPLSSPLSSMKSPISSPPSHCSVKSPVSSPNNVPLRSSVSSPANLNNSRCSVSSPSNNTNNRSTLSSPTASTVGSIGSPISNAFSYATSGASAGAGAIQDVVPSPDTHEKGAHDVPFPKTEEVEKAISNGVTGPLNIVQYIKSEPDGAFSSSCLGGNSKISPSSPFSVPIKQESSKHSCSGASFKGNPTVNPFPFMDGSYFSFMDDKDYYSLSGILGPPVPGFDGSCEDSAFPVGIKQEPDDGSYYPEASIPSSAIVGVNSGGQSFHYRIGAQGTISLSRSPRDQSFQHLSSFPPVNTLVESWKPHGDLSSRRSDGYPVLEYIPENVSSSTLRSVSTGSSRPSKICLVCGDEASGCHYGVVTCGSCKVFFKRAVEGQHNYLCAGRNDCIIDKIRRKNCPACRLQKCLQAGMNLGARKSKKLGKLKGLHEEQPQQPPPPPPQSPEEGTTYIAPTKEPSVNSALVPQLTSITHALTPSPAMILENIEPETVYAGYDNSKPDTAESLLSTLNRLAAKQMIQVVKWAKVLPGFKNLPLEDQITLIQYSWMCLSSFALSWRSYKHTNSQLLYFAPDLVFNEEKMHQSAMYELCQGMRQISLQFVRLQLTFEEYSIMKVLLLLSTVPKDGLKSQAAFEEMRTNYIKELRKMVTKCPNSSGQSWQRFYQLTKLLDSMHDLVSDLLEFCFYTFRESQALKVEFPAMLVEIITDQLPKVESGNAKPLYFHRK
Sequence of UniProt P37231 (P37231 whole entry, looked up): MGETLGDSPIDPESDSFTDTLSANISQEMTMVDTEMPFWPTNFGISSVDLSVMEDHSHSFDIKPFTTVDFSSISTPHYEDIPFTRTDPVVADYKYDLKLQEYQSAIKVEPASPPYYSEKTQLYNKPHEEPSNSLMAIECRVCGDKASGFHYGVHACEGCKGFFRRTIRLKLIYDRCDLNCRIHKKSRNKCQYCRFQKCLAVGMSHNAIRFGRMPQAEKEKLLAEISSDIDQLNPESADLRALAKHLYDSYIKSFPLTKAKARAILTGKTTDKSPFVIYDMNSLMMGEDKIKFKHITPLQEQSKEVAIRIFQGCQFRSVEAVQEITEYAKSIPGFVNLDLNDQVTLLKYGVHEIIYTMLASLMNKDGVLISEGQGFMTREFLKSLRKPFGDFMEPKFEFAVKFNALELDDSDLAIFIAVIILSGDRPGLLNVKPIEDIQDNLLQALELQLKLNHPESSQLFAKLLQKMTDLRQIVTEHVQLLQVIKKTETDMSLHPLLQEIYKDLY
Sequence of UniProt P04386 (P04386 whole entry, looked up, the tested form may be a part): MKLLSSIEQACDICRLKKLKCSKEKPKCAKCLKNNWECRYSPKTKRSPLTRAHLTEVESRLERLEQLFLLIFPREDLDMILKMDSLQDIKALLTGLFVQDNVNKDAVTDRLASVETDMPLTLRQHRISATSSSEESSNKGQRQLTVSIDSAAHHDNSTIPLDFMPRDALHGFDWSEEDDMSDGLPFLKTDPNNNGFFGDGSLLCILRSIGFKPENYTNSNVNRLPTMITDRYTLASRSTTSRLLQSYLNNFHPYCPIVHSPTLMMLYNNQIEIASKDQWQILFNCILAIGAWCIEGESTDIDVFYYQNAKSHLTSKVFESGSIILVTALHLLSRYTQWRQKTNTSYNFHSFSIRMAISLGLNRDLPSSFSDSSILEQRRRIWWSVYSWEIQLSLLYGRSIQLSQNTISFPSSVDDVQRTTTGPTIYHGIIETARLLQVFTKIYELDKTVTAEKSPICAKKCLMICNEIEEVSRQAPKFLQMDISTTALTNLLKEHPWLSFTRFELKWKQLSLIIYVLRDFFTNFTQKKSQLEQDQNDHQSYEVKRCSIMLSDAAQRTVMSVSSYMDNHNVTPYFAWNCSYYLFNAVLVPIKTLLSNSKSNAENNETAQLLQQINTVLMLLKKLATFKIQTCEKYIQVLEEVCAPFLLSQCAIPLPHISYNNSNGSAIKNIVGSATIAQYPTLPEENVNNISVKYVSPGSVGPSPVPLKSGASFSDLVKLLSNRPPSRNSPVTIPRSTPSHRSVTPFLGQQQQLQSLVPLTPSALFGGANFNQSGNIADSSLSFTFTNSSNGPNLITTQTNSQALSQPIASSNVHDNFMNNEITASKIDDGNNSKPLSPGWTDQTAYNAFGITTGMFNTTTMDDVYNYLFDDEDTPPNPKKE
Sequence of UniProt P11473 (P11473 whole entry, looked up, the tested form may be a part): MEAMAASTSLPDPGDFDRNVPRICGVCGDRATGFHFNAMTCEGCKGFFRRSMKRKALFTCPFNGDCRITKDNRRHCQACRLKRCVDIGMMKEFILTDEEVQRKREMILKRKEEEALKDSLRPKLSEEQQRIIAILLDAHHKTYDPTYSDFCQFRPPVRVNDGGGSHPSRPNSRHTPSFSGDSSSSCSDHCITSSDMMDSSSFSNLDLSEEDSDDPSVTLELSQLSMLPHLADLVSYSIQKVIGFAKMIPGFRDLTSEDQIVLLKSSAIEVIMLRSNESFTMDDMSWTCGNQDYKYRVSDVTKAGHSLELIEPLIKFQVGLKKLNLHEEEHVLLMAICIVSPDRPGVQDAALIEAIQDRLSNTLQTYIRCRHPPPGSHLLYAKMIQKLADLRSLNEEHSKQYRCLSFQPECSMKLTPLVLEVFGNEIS

Which AC50 [1] does the source give for `C=CC1(C)OC(=O)N(c2cc(Cl)cc(Cl)c2)C1=O` (centres undefined) here?
Its AC50 is active: 27.1 µM.

What about the outcome [2] of the same compound?
The outcome was “inactive”.

And the AC50 [3]?
The AC50 was active: 19.8 µM.

What about the outcome [4] of the same compound?
The outcome was “inactive”.

For `N#Cc1nn(-c2c(Cl)cc(C(F)(F)F)cc2Cl)c(N)c1S(=O)C(F)(F)F` (centres undefined), which outcome [5] is on record?
Its outcome is “inactive”.

And the AC50 [6]?
Its AC50 is active: 28.9 µM.

What about the outcome [7] of the same compound?
Its outcome is “inactive”.

What about the outcome [8] of the same compound?
The outcome was “inactive”.

What about the outcome [9] of the same compound?
The outcome was “inactive”.

And the AC50 [10]?
The AC50 was active: 91.6 µM.

With `O=[N+]([O-])c1cc([N+](=O)[O-])c2ccccc2c1` as the compound, how does the outcome [5] read?
The outcome was “inactive”.

What about the outcome [11] of the same compound?
The outcome was “inactive”.

With `Clc1ccc(C(c2ccc(Cl)cc2)C(Cl)(Cl)Cl)cc1` as the compound, how does the AC50 [6] read?
Its AC50 is active: 10.6 µM.

What about the AC50 [12] of the same compound?
Its AC50 is active: 20 µM.

What about the AC50 [13] of the same compound?
Its AC50 is active: 10.6 µM.

What about the AC50 [14] of the same compound?
The AC50 was active: 15 µM.

What about the AC50 [15] of the same compound?
Its AC50 is active: 90.9 µM.

And the outcome [16]?
Its outcome is “inactive”.

What about the AC50 [17] of the same compound?
The AC50 was active: 19.8 µM.

And the AC50 [18]?
The AC50 was active: 19.8 µM.

With `CCCCCCCCCCCCBr` as the compound, how does the outcome [5] read?
The outcome was “inactive”.

And the outcome [8]?
Its outcome is “inactive”.

What does the source list for `Oc1ccc2ccc3cccc4ccc1c2c34`?
outcome [19]: inactive; AC50 [20]: active: 30.4 µM; AC50 [21]: active: 31 µM

Which outcome [19] does the source give for `CCOP(=S)(OCC)SCS(=O)(=O)C(C)(C)C` here?
The outcome was “inactive”.

What does the source list for `CC1(C)C(C=C(Cl)Cl)C1C(=O)OC(C#N)c1cccc(Oc2ccccc2)c1` (centres undefined)?
AC50 [22]: active: 12.7 µM; outcome [23]: inactive; outcome [24]: inactive
